# Reference: ChEMBL document CHEMBL4888484, “Replenishing the malaria drug discovery pipeline: Screening and hit evaluation of the MMV Hit Generation Library 1 (HGL1) against asexual blood stage Plasmodium falciparum ,using a nano luciferase reporter read-out” (2022)
# In all, about 150,000 compounds went through this assay and about 540 (0.36%) showed an effect of 50% or more. The list shows a part of the results.
# System: Plasmodium falciparum
# Experiment: Primary screen in NF54 nanoGlo assay, in single point, at 2uM, 72h; a lower Z score goes with more inhibition
# Type: functional, Erythrocyte
# Conditions: timepoint 72 hour
Structure (SMILES),% Inhibition,Z score
O=C(NC(c1ccc(F)cc1F)[C@H]1C[C@H](O)C1)c1cscn1 (stereo partly drawn),2%,-0.21
COc1ccc([C@@H](C)NS(=O)(=O)c2cccc(C(=O)N3CCC3)c2)cc1,-5%,0.75
CC1CN(Cc2ccccc2)CCC1NC(=O)NC1CCCCC1O (stereo not drawn),0%,-0.02
COCCn1cncc1CN1CCC(CNC(=O)c2scnc2C)CC1,-9%,1.94
FC(F)(F)C[C@H]1CCCN(c2ncnc3[nH]ccc23)C1,-6%,0.82
COCC(=O)Nc1cc(C(=O)N[C@H](C)c2ccc(OC)cc2)c2c(c1)ncn2CCc1ccccc1,22%,-2.78
Cc1cccc(NC(=O)N2CCN(c3nccs3)CC2)c1C,-7%,1.34
Cc1noc(C2CC(F)CN2C(=O)c2ccc(Br)o2)n1 (stereo not drawn),1%,-0.12
Clc1ccc(CCCn2cncn2)cc1,-3%,0.57
CN(CCC#N)C(=O)N[C@H](c1ccc(F)c(Cl)c1)C(F)(F)F,-7%,1.22
CC(C)c1ccc(-c2cc(C(=O)Nc3sc4c(c3C#N)CC[C@H](C)C4)c3ccccc3n2)cc1,2%,-0.25
CC(C)(C)OC(=O)N1CC2CC3CC2C1C3=O (stereo not drawn),-10%,1.06
CCOC[C@H](C)CS(=O)(=O)NCCc1cnoc1,1%,-0.14
Cc1nc([C@H](C)N(C)C(=O)c2cn(Cc3ccc(Cl)cc3)nn2)c(C)s1,-11%,1.46
CCN1CCN(C(=O)c2nc(N(CC)CC)c3c(C)cc(C)nc3n2)CC1,-7%,1.2
O[C@H](CN1CCN(Cc2cncs2)CC1)c1cc2ccccc2o1,-7%,0.98
CN(C(=O)N1CCCC[C@H](NC(=O)c2cnn(C)c2)C1)c1ccccc1,-5%,0.92
Cc1cc(F)ccc1C(=O)NS(=O)(=O)N1CCCC1,2%,-0.29
O=C(COc1ccc(F)cc1)N1CC2(C[C@H](N3CCOCC3)CO2)C1,-22%,3.48
COc1ccc2c(c1)C(N1CCN(S(=O)(=O)c3ccccc3C)CC1)=Nc1ccccc1O2,8%,-1.12
COC(=O)[C@@H]1CCCCN1Cc1c(C(=O)N2CCCN(C)CC2)nc2sccn12,-8%,0.9

Structure (SMILES),% Inhibition,Z score
CCc1ccsc1C(=O)NCC(C)(C)C(N)=O,-12%,1.09
NC(=O)c1ccc(CN(C(=O)c2[nH]ccc2C2CC2)C2CC2)c(F)c1,-8%,1.33
O=C(C1CCOCC1)N1CCN(c2cnccn2)C[C@@H](O)C1,-15%,1.69
CC(NC(=O)c1n[nH]c2ccccc12)C1CCCO1 (stereo not drawn),-2%,0.39
CC(C)(c1nc(Cc2cccnc2)no1)S(=O)(=O)C1CC1,19%,-2.36
CCC(C(=O)N1CCC2(CC1)C(=O)N(CC(=O)NCC1CCCO1)CN2c1ccccc1)c1ccccc1 (stereo not drawn),-25%,2.63
FC(F)(F)c1nc(-c2ccc3c(c2)OCCO3)n[nH]1,2%,-0.27
Cn1cnc2cc(CNCc3ccc(C(=O)O)cc3)ccc21,-11%,1.6
CC1COCCC1Nc1ccc2[nH]ncc2c1 (stereo not drawn),10%,-1.59
Cn1nc(-c2cccs2)cc1CNC(=O)Cc1ccc(F)cc1,-10%,1.32
O=C(CCc1ccccc1Br)N1CC(CN2C(=O)CCC2=O)C1,-10%,1.99
Cn1cccc1CNC(=O)c1cc2ccc(Cl)cc2s1,-13%,1.88
COc1ccc(NC(=O)Cn2nc3c(N4CCCCCC4)nccn3c2=O)c(OC)c1,-5%,0.45
Cc1cc2[nH]c(=O)[nH]c2c(NC(=O)C[C@H]2C(=O)NCCN2C(C)C)c1C,-5%,0.61
Cc1ccc(-c2cc3n(n2)CCC(=O)N3CC(=O)N2CCCCC2)cc1,-15%,1.48
Cc1ccc2c(c1)CCCN2C(=O)CNCCc1nc(-c2cccnc2)n[nH]1,-3%,0.32
O=C(NCc1ccco1)c1nc(-c2ccncc2)cs1,28%,-4.11
Cc1cnc(CN2C[C@]3(CCCN(C(=O)c4cccs4)C3)CCC2=O)cn1,-9%,1.5
CC(C)(CO)C(=O)N1CC[C@H](O)[C@@H](C2CCCC2)C1,-11%,1.85
O=C(NCCC1CS(=O)(=O)C1)N[C@@H]1CCCc2ccc(Cl)cc21,-4%,0.54
Fc1c(Cl)cccc1OCc1csc([C@@H]2CCCO2)n1,-9%,1.05

Structure (SMILES),% Inhibition,Z score
CCCN(C(=O)N(C)C)[C@H]1CC(=O)N(C)C1=O,-6%,0.55
O=C(c1cc2ccccc2[nH]1)N(CCN1CCOCC1)C1CCOCC1,-7%,1.11
Cn1cc(CN2CCN(C(=O)c3nc[nH]n3)CC2)c(-c2ccccc2F)n1,0%,-0.06
CCOc1ccc(S(=O)(=O)N2CCN(Cc3nonc3C)CC2)cc1,-9%,1.15
COc1ccc(-c2nnc(C(C)=O)n2Nc2ccc(C)cc2)cc1,-6%,0.86
CC1(C)C(NC2CCN(CC3CCOC3)CC2)CC1c1ccccc1 (stereo not drawn),-7%,1.01
COc1ccnc(NC2CCOC(c3ccccc3)C2)n1 (stereo not drawn),0%,0.04
CCC(=O)N(Cc1ccc(C)cc1)c1ccc(CC(=O)NCC2CC2)cc1,-6%,0.58
Cc1ccc2nc(-c3ccco3)nc(N[C@@H](C)c3ccccc3)c2c1,-13%,1.3
CCCOc1ccc(NS(=O)(=O)c2cccc(-n3cnnn3)c2)cc1OCCC,2%,-0.32
COCC(COC)S(=O)(=O)N[C@@H](C)Cc1c(C)noc1C,-6%,0.62
CC1CCCCC1NC(=O)C1(C)Cn2c(cc3occc32)C(=O)N1Cc1cccnc1 (stereo not drawn),-5%,0.93
CCN1CCCN(Cc2cc3cc(C)ccc3nc2N2CCC[C@H](O)C2)CC1,10%,-1.52
CN1CC[C@@]2(CCC1=O)CN(S(=O)(=O)c1ccccc1C#N)CCN2C,2%,-0.24
NC(=O)[C@@H]1CCCN1CCCC1CCCC1,0%,0.04
O=C(O)c1ccc(COc2ccc(CN3CCCN4CCC[C@H]4C3)cc2)o1,-10%,1.75
CC1(C(=O)N2CC3CCCCC3C2)CCCC1 (stereo not drawn),-24%,2.4
CC(C)(C)c1ncc(C(=O)N2CCOCc3ccccc32)cn1,-8%,1.54
COc1ccc(N2C(=O)c3ccccc3[C@@H]2c2cn(C)c3ccccc23)cc1,7%,-0.85
COc1c(C)cc(C)cc1CN1CC[C@H](N2CCN(C)CC2)[C@H](CCCO)C1,-5%,0.47
CCc1n[nH]c(C(=O)N[C@H]2CC[C@@H]3CCC[C@@H]32)c1C,-8%,1.46

Structure (SMILES),% Inhibition,Z score
O=C(NCc1cccs1)c1nn(-c2ccccc2)c2ccccc2c1=O,-6%,0.82
CCc1nccn1CCCNc1ccc(C(C)=O)cn1,-1%,0.13
C[C@H](Nc1ccc(-c2cnc(C3CC3)o2)cc1)c1ccc(C(F)F)nc1,-5%,0.94
CCN(CCC(F)(F)F)C(=O)c1ccc(S(N)(=O)=O)c(C)c1,3%,-0.38
CCc1c(C(=O)N2CCC3(CC2)[C@H](O)C[C@@H]3OCCN)csc1C,4%,-0.66
Cc1ccc(-c2nc(C)c([C@H](C)NC(=O)c3nc(=O)[nH][nH]3)s2)cc1,-12%,1.73
COc1ccc(C2(CN[C@@H](C)c3cnn(C)c3)CC2)cc1,-11%,1.55
CCCCN1CCN(c2cc(-n3ccnc3C)n3nccc3n2)CC1,-1%,0.16
CCC[C@H]1CCCCN1C(=O)CNS(=O)(=O)CC,-1%,0.06
COc1nc2c(cc1CNC(=O)c1c(C)cccc1C)C(=O)N(C1CCCC1)C2,-14%,1.78
Cc1cccc(NC(=O)N2CCN(C(=O)c3ccc(C)nc3)CC2)c1,9%,-1.09
CC(C)c1cc(C(=O)NC[C@@H](C)CCO)on1,-1%,0.17
CCC(=O)N1CCc2ccc(OCc3ccc(C(=O)Nc4ccc(OC)cc4)o3)cc2[C@@H]1c1cccc(C)c1,-13%,2.14
O=C(NCCc1nc(-c2ccccc2)no1)C1CCCC1,-4%,0.46
Cc1cc(N2CCC(CCCc3ccccc3)(C(=O)O)CC2)nc(N)n1,-12%,1.28
CCn1ncc2ncn(C[C@H]3C[C@@H](OC)C3)c(=O)c21,-14%,1.58
COc1ccc(-c2cnn3c(C)cc(C)nc23)cc1S(=O)(=O)Nc1cccc(Cl)c1C,-7%,0.69
CCC(CC)CS(=O)(=O)NCc1nc(-c2cccs2)n[nH]1,-4%,0.86
CN(C)Cc1cc(C[C@@H]2C[C@H](NC(=O)C3CCC3)C2(C)C)no1,-4%,0.57
COc1ccc(Cl)cc1NC(=O)Cn1c(=O)c2nnc(C(C)C)n2c2ccccc21,-8%,0.91
N#Cc1cccc(C(=O)N2CCCCCCNC(=O)[C@@H]3CCC[C@@H]32)c1,-10%,1.31
